{"source": "PubChem BioAssay AID602332", "about": "(National Center for Advancing Translational Sciences (NCATS), 2012)", "note": "About 75 (0.02%) of roughly 420,000 compounds were called active. Inconclusive results, whose numbers are uncertain, are shown with a selection of clear calls. The call rests on the fitted dose curve; in most records, active means well fitted activation curve with a large enough effect; inconclusive means small, poorly fitted or top-dose-only effect; inactive means no such curve, though single readings can be large or run the other way. A potency beside an inconclusive call is a rough fit, not a confirmed value. Potency means the concentration at half of the fitted maximal effect; tags describe the fitted curve by direction and shape."}
{"assay": "qHTS for Inducers of the Endoplasmic Reticulum Stress Response (ERSR) in Human Glioma: qHTS; further: nearly all actives have a fitted effect of over 35% in size; on activation: % of control where 0% means no effect", "conditions": "U87-MG GRP78 promoter luciferase reporter, 16 h; activation: active compounds read high", "text": "Primary protein unfolding takes place for many diseases, including diabetes and hypoxia, , and triggers a reaction in the cells called ER stress response (ERSR). ). ERSR is designed as a repair mechanism, but ultimately leads to cell death via apoptosis if conditions triggering protein unfolding persist (1). The molecular clue to ERSR activation is the enhancement of the expression of key molecular chaperones, including the glucose regulated protein (GRP) 78. GRP78 is the main sensor for protein folding and the main actuator of the ERSR.\nIn a collaboration between the Southern Research Institute and the NIH Chemical Genomics Center, a cell based screen was developed that reliably uses GRP78 as a sensor to identify small molecules as inducers of ERSR. In resting conditions, GRP78 binds proteins and acts as a natural repressor. Once unfolded proteins are present in the ER, GRP78 releases some of the repressors and binds to the unfolded proteins. The release of the repressors executes the ERSR program. Using a human glioma cell line in a miniaturized, luminescent format, a high-throughput screen was developed to identify actuators of the ERSR.\n(1) Soboloff, J. and S. A. Berger (2002). \"Sustained ER Ca2+ depletion suppresses protein synthesis and induces activation-enhanced cell death in mast cells.\" J Biol Chem 277(16): 13812-20.\nNIH Chemical Genomics Center [NCGC]\nNIH Molecular Libraries Probe Centers Network [MLPCN]\nAssay Submitter (PI): Maurizio Grimaldi, Southern Research Institute\nStable transfected human glioma cell line, U87-MG, are dispensed at density 1000 cells/well into Greiner white solid bottom 1536-well assay plates. Compounds are transferred via Kalypsys pin tool equipped with 1536-pin array (10nl slotted pins, V&P Scientific, San Diego, CA). The assay plates will be incubated for 16 hours and developed by adding appropriate quantities of the Promega Bright Glo reagent. The plates will be incubated at room temperature for 10 minutes prior to being transferred into a ViewLux high-throughput CCD imager (PerkinElmer), wherein end-point measurements of luminescence are acquired."}
{"compound": "O=C1NC(=O)N(Cc2ccco2)C(=O)/C1=C/C=C/c1ccco1", "Potency": "inconclusive: 12.6 µM [activator, single point]"}
{"compound": "CN1CC[C@@]2(CCCN(C(=O)c3csnn3)C2)C1", "activation": "inactive: -5.09%"}
{"compound": "O=C(CCl)Nc1sccc1C(=O)c1ccccc1", "Potency": "inconclusive: 15.8 µM [activator, full curve, poor fit]"}
{"compound": "O=c1c(O)c(-c2ccc(O)c(O)c2)oc2cc(O)cc(O)c12", "Potency": "inconclusive: 50.1 µM [activator, single point]"}
{"compound": "CCCC[C@@H](C)[C@@H](OC(=O)C[C@@H](CC(=O)O)C(=O)O)[C@H](C[C@@H](C)CCCCCC[C@@H](O)C[C@H](O)[C@H](C)N)OC(=O)C[C@@H](CC(=O)O)C(=O)O", "Potency": "inconclusive: 44.7 µM [activator, single point]"}
{"compound": "COc1ccc(C(c2nnnn2-c2ccc(OC)cc2)N2CCC3(CC2)C(=O)NCN3c2ccccc2)cc1", "note": "(configuration not stated)", "Potency": "inconclusive: 22.4 µM [activator, single point]"}
{"compound": "Cn1c(O)c(C=NCCN2CCOCC2)c(=O)n(C)c1=S", "activation": "inactive: -4.35%"}
{"compound": "O=C(NCC1=C(c2ccc3ccccc3c2)C[C@@H]2CC[C@H]1N2Cc1ccco1)c1nccs1", "activation": "inactive: -1.47%"}
{"compound": "O=c1[nH]c(=O)n(C2CCCCCC2)c(O)c1C=NCC1CCCO1", "note": "(configuration not stated)", "activation": "inactive: 5.34%"}
{"compound": "CNc1ccc2oc(C[C@H]3O[C@]4(CC[C@H]3C)O[C@H]([C@H](C)C(=O)c3ccc[nH]3)[C@H](C)C[C@H]4C)nc2c1C(=O)O", "activation": "inconclusive: -2.51% [activator]"}
{"compound": "O=C(O)c1ccccc1Nc1cccc(C(F)(F)F)c1", "Potency": "inconclusive: 44.7 µM [activator, partial curve, poor fit]"}
{"compound": "Fc1cccc(CNCCc2c[nH]c3ccccc23)c1", "Potency": "inconclusive: 28.2 µM [activator, single point]"}
{"compound": "NC(=Nc1ccccc1)Nc1ccccc1", "Potency": "inconclusive: 11.2 µM [activator, partial curve, poor fit]"}
{"compound": "CN1/C(=C\\C=C2C(=O)NC(=O)NC2=O)C(C)(C)c2ccccc21", "activation": "inactive: -4.31%"}
{"compound": "O[C@@H]1[C@@H]2O[P@@](O)(=S)OC[C@H]2O[C@H]1n1cnc2cc(Cl)c(Cl)cc21", "Potency": "inconclusive: 50.1 µM [activator, single point]"}
{"compound": "CC(C)CN(CC(C)C)c1ccc(C=C2C(=O)NC(=S)NC2=O)cc1[N+](=O)[O-]", "Potency": "inconclusive: 63.1 µM [activator, single point]"}
{"compound": "COc1cc2c(cc1O)C[C@H]1NCCc3cc4c(c-2c31)OCO4", "Potency": "inconclusive: 50.1 µM [activator, single point]"}
